For three substances, binding results are on record in article PMC5760104.

No constants are given. Whether binding was seen depends on the method and setting. In cells and extracts the contact can be indirect. Some entries that bind do so weakly or less than the wild type. For some of these results: Sequences can lack the tags named with a protein.

For assay [1], the target named is FLAG-tagged BPV1 E6 (Bos taurus papillomavirus 1) (UniProt P06931). Put plainly: co-IP; HA-E6AP_Ub- or HA-E6AP_Ub- LDDLL co-transfected with the E6 protein and HA-GFP in 293T cells; lysed 18 hours later in 0.5X IGEPAL lysis buffer.
Assay [2] concerns the target FLAG-tagged PsPV1 E6 (Phocoena spinipinnis papillomavirus 1) (UniProt Q8UZ19). Put plainly: co-IP; FLAG-E6 co-expressed in 293T cells with an excess of both HA-E6AP_Ub- and HA-MAML1 (and HA-GFP); lysed 18 hrs later in 0.5X IGEPAL lysis buffer; anti-FLAG M2 beads 1 hr; blots with anti-HA and anti-FLAG.
Assay [3] deals with T1, FLAG-tagged HPV11 E6 (Human papillomavirus type 11) (UniProt P04019).
T1 sequence: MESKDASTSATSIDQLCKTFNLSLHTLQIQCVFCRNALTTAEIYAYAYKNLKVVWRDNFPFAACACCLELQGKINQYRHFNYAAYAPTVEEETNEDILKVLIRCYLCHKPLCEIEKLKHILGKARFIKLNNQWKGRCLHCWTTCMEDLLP
The description is as above.

Assay [4] has as its target FLAG-tagged HPV18 E6 (Human papillomavirus type 18) (UniProt P06463). Described as above.
Assay [5] has as its target FLAG-tagged UmPV1 E6 (Ursus maritimus papillomavirus 1) (UniProt B2KKW7). The assay is described as above.
The target in assay [6] is FLAG-tagged MnPV1 E6 (Mastomys natalensis papillomavirus 1) (UniProt P30735). Described as above.
For assay [7], the target named is FLAG-tagged HPV8 E6 (Human papillomavirus type 8) (UniProt P06428). The assay is described as above.
For assay [8], the target named is T2, FLAG-tagged HPV1 E6 (Human papillomavirus type 1) (UniProt P06929).
T2 sequence: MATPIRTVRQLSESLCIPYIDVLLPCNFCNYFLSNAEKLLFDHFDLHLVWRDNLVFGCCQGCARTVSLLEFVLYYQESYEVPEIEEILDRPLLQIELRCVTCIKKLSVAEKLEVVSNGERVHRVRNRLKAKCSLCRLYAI
The description is as above.

Assay [9] concerns the target FLAG-tagged HPV16 E6 (Human papillomavirus type 16) (UniProt P03126). The description is as above.
The target of assay [10] is FLAG-tagged BPV1 E6 (Bos taurus papillomavirus 1) (UniProt P06931). The assay is described as above.
The target of assay [11] is FLAG-tagged BpPV1 E6 (Bettongia penicillata papillomavirus 1) (UniProt D6N1B8). Put plainly: co-IP; 293T cells co-transfected with myc-MAML3, HA-MAML1, HA-MAML2, HA-E6AP_Ub-, HA-GFP and FLAG-E6; FLAG antibody beads.
Assay [12] addresses FLAG-tagged RaPV1 E6 (Rousettus aegyptiacus papillomavirus 1) (UniProt Q0QII1). The assay is described as above.
In assay [13] the target is FLAG-tagged BPV1 E6 (Bos taurus papillomavirus 1) (UniProt P06931). The description is as above.

With “HA-tagged E6AP containing a C843A mutation that eliminates ubiquitin ligase activity (E6AP_Ub-) (from UniProt Q05086-1 1-875) (enzyme)”, the binding result is “no binding” in assay [1]; “binds” in assay [2]; “binds” in assay [3]; “binds” in assay [4]; “binds” in assay [5].
On to “HA-tagged MAML1 (from UniProt Q92585 1-1016)”, for which the binding result in [6] was “binds weakly”; in assay [7], “binds weakly”; in assay [8], “binds weakly”; in assay [9] it was “binds weakly”; in [10], “binds”.
On to myc-MAML3 (from UniProt Q96JK9 1-1138), for which the values for the binding entry in [11], in assay [12] and in [13] were “no binding”, “no binding” and “binds”, respectively.
